# Measurements from the supplement of paper PMC12632987.
# Over roughly 2,300 sequences, “median log2 fold change of GCK-ALFA target abundance (FLAG IP / Myc IP barcode read proportion)” has its median near 0.095; the lowest 2% begin near -0.47. This is one part of the list.
# B1: LC3A_28_994 (protein)
# chain: SELEKQLEEALKEAKEAAKAGKPTVITIKVPGSANEEDIEKVIKKLEEIAEILKDVKGSAIIIDLDGDLDEELRQKIIDAAEEIEKKYPNITVIIALDEE
# B2: LC3A_36_1339 (protein)
# chain: MKVITATSEKEDIEKATKKANEEGADLRVVFTPEDTVEEIREALELVLELSKNISSVIVDLDAATQEELMKKLKVASEVADKIEEKNGKTVIIAYDVVEP
# B3: LC3A_141_379 (protein)
# chain: MTETVTRTFADLPAAEAEAAGIATLRELFARARAAGAKTITITITVTATVDGKTHTRTETFTGPVTNEMVLGGAEVFLGLVALQFEGHKLTVTITATFTY
# B4: LC3A_3_1731 (protein)
# chain: MEEILKEAREKLESLGFSEEVIEAALETIEALLKKGLEEEVELLLETLEKIKDANQEDILYYLEEIKELVETSKESKEELAKKVKEEIKILENDSEIEEL
# B5: LC3A_3_1534 (protein)
# chain: MEEKIEETLKLLKEAGASEETLEKFKEAVEALKERGYEKALETLIEETKKLAGLPSEYLLEFFEEVLELIKNSDLNEEELIKKIREIARIVKNEAEIEEL
# B6: LC3A_28_666 (protein)
# chain: SELEENIKAALEEAKEAAEKGVPVVITIEVPGDATEEEIDKVIEAMEEIAEILKDIEGSAIIIDLEEGVAEEHRDKLIDKAEEIEEKYPNVTVIIAYPER
# B7: LC3A_free_46_2436 (protein)
# chain: VVVKIDVSLLHEDEEVLKKAVEEIVKKAKEIAEKYGGKIEIKVEFSEDEDGYHFADIEITVKVETKEKAEKIANELIDAIDEIVEKYDVSAIISVEIEEE
# B8: LC3A_28_874 (protein)
# chain: SRVEEELKKVEEEGKKQAEEGEDIVLHVKISSEFTLEEAVELMKRVLELAEKLVKETGLKVTIVVDFDGSQETLDAILKLAEEAEKRNPKITVIFAISEE
# B9: LC3A_102_160 (protein)
# chain: DIEEKIKEIIEEKVKEMEEFLEKEESLTEEEKKEILEIVRRALEAKARILLSEAQHGFVDLVAEDELLRAREELKQYPKRVQEKAEEILRRAEEEIKKLL
# B10: LC3A_free_26_2134 (protein)
# chain: EEWLDIAALDRAIDLLEEILKILEKNKGKYEELIKKVKKAIELLKKETLEALKEAAKLLKEILKELKKLKKEDPELMEKLIKLAEEALKLVEENIKIMES
# B11: LC3A_28_1236 (protein)
# chain: NKVEKQIEEAKKKVEEAVKKGEEALVTLTVTKETNQEDIEKIIKAMEEIAELGKDLPALSIIIDVEKGVKQEHIDKLAKAAEEIEEKYPNVTVIIALEEE
# B12: LC3A_free_46_2363 (protein)
# chain: MEIDIDLLAKNKSEEEVKKIAEEIKKDIEKAAKEHGVKVKIEYEIEKLEDGDYFISIKIEVEAETKEKAQAFETSVLDIVEKYSLKYNLSAIISITETKP
# B13: LC3A_147_430 (protein)
# chain: YITDVDIDILTKDAEEEVIEAAKEIAEELRAKGYDVELDIEVEDLENGEKYIDIEIEIETETEEEAKEAADYVIDKWDELEEKLKDKILGSIISVDIEKA
# B14: LC3A_3_1677 (protein)
# chain: MEKLLEEAKKTVDKTIKNKEVQAKFKEALDLLAERGLEENIKAVAELVKKMKNLPEEEQLAFANELLATVKAATGSPEAAAAAVASEIATLTNEIEIEEL
# B15: LC3A_free_8_2540 (protein)
# chain: NTEEATRKVTEALDELEERLREKARELGLPRLDILDLELLVGSTIAEVIGLRDGKIEDIRKAVKEGMEEVLKEAAELSPELAKLVKEGEKEILELLKELE
# B16: LC3A_28_704 (protein)
# chain: SMLEENIERALEEAKRAAEEGKEAVIEITVPSTATQEDIDKVIEALYEIAEIVKDLKRTSIIVNVEGGVKQEHIDKLIDAGEEIEKKYPNVTVIFALDEE
# B17: LC3A_28_771 (protein)
# chain: MDIEEEGRRALEEAREAAARGEEAVITLTVPEGATQEDIEKAIKALEEIAEILKDMPRASIVIDVESGVEQENLDKLAKAAEELEKKYPNLTVIIALDEE
# B18: LC3A_free_46_2332 (protein)
# chain: MLVVVEVDVLAPDKETAEAFAEELRRLIEERLKEAGIEAEVEVELEEAEDGKHFRVLVKVRIKDPNADPEEVANLVVDAIDEAAEKHGLSYIISVEIEEL
# B19: LC3A_free_46_2294 (protein)
# chain: YIVEIDIDVTGLTKEKAEKLKEELTKEIEKLAEELGLEVEIEVEIEKNEDGTYLVRIRITVKAETLELAKKAQDEIIDIVDKLAEKYGADAVISYEIEEA
# B20: LC3A_28_1068 (protein)
# chain: SAIDKQLEAALKEAKEAAAKGEEATITLTIGKDATEEDVEKVLKTMEEIAEINKDLPSVSIIVDVDNENQWEVTKKVSEKGDELEKKYPHVNVIIALDEE
# B21: LC3A_free_0_2108 (protein)
# chain: TTMVVEVVAISKEKLSEEEIKKAKEELEKKAEEISKKYGVKTEVSVSEVDGRAVFTLTVRGEGLSLDTALEIEDELSDHVEKVFKELGKEATIFSSVYRE
# B22: LC3A_free_39_2243 (protein)
# chain: SAEEEREAEEEILELAAEEGEEARRLAEEILEILRGRPEAVKELLKLLKELKENGGDVLEALRRALEVAERLRAAGASQEEIAEAIIEELRDELNLIPLD
# B23: LC3A_free_39_2288 (protein)
# chain: SMEELEKAVKRLAELLDKIEGVTEEEKQTILEAAKKSLETAKAILEALETIEKDGGDVAEAAKRIAAKIKELEAAGKSLEEMTEEIIALTKDLVNLIPID
# B24: LC3A_45_1948 (protein)
# chain: MWEATVDVLVPAEDFDAAVAVLRREAERLEREEGVEVELDEEALAAARAEAEAEGEALLTVRVRHEDEEVALDAADRIADALLAELSPSVAVAISVERVP
# B25: LC3A_3_1740 (protein)
# chain: MAERLAAARARLEALGLSPEVVAAALRVVEALLAKGYERAVETLLELLAEAAGLPDDILLAMLEDILRRVETEDLSEEEVIKLIEEEFRVARAEAEIEEL
# B26: LC3A_free_39_2190 (protein)
# chain: SMEERERLRKEILELAAEEGEEAKELAEELIKLIGDEEERLRELLELLKELKEAGVDLKEALEEALELAKKLKEEGKSREEIFEEVKALLRDKINLIPID
# B27: LC3A_3_1417 (protein)
# chain: LEAERAAALAALAAAGHSPATLAAVDELVALLAERGAEEAARRALEAVLAAADISSELLLEVLEEAVRLLTEEGLSPEEVLERLEEELRIARNEQEIEEL
# B28: LC3A_28_814 (protein)
# chain: MSKEEIIEEIRRQAKEAEESDDTVLLNVTIDGTITPEEAKEIMEVVREESERLSKKRKVAVVVDLEEPISQEVIDLIADMAEEIEKELPNVSVVIALPES
# B29: LC3A_free_39_2206 (protein)
# chain: SMEEFEKAAEEILKIAKEEGEEALKAAKELLELLDGNLEAAKAVLEKLKEIKENGGDVLEALKAMLEVARKAKEEGLSPEELKELIKEEADVYVNLIPID
# Biological target: MAP1LC3A, Q9H492
# Assay: median log2 fold change of GCK-ALFA target abundance (FLAG IP / Myc IP barcode read proportion) (log2 ratio); each designed protein is fused to an ALFA-tag nanobody in HEK293 cells to bring the named protein to FLAG-tagged glucokinase (GCK); Myc marks an untargeted standard; higher = target protein stabilised (more abundant)
# Conditions: target protein: 3xFLAG-MCP-GCK-ALFA reporter; HEK293 landing pad (RPLP)
# How it was run: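 The readout is target abundance, the per-binder median log2 ratio of FLAG to Myc barcode read proportions. It came from HEK293 landing-pad cells carrying a recombined ALFA-nanobody-fused binder library, induced with 2 μg mL^−1 doxycycline and transfected with a plasmid for a FLAG-tagged target and a Myc-tagged standard. After 48 h, lysates were immunoprecipitated with anti-FLAG and anti-Myc, and circular RNA barcodes were reverse transcribed, amplified and sequenced. Each barcode needed a proportion of at least 10^−7 in both replicates and each binder at least 3 barcodes per replicate, a pseudocount of 10^−6 was added, and the replicates were pooled.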
row,Binder,median log2 fold change
1,B1,-0.239
2,B2,0.21
3,B3,0.216
4,B4,0.00619
5,B5,0.231
6,B6,0.165
7,B7,-0.464
8,B8,-0.0473
9,B9,0.285
10,B10,-0.142
11,B11,0.233
12,B12,0.0338
13,B13,-0.294
14,B14,0.209
15,B15,0.029
16,B16,-0.0339
17,B17,-0.073
18,B18,0.0733
19,B19,0.0448
20,B20,-0.0226
21,B21,0.0605
22,B22,0.27
23,B23,0.326
24,B24,-0.214
25,B25,0.278
26,B26,0.42
27,B27,0.217
28,B28,-0.43
29,B29,0.218
